# Measurements as given in PubChem BioAssay AID686978 (National Center for Advancing Translational Sciences (NCATS), 2013).
# Screen size: about 420,000 compounds; about 64,000 (15%) were called active. Inconclusive results, whose numbers are uncertain, are shown with a selection of clear calls. Calls follow the shape of the dose curve; as a rule, active = well fitted inhibition curve with a large enough effect; inconclusive = small, poorly fitted or top-dose-only effect; inactive = flat fitted curve, though single readings scatter. No potency is given beside an inconclusive call; the fits are too rough.
# Experiment: qHTS for Inhibitors of human tyrosyl-DNA phosphodiesterase 1 (TDP1): qHTS in cells in absence of CPT; also: nearly all actives have a fitted effect of over 55% in size
# Conditions: DT40 Tdp1-/- hTDP1 cells, no CPT, ATP luminescence, 48 h; activity change, negative = growth inhibition: at 46.2 µM (top of the series) unless noted
# Procedure, shortened: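 Chicken DT40 Tdp1-/- cells stably complemented with human TDP1 were seeded at 400 cells/well with DMSO in place of 20 nM camptothecin. After compound pinning, cells grew at least 48 hr at 37 °C; viability read by CellTiter-Glo luminescence.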
# % is scaled to controls: 0 for no effect and ±100 for the full control effect; potency is read from the fitted curve at half-maximal effect; tags tell the direction and shape of the fitted curve.
Compound,Potency,"activity change, negative = growth inhibition"
CCOC(=O)c1c(NC(=O)Cn2cnc([N+](=O)[O-])n2)sc(C)c1C,"inconclusive [inhibitor, single point]",–
COc1ccc(-c2csc(=NCCO)n2-c2ccccc2)cc1,active: 18.4 µM,–
Cc1ccc(S(=O)(=O)/N=C2/NC(=O)/C(=C\c3ccco3)S2)cc1,–,inactive: -29.5%
O=C(N/N=C/c1ccccc1F)c1ccc(COc2ccccc2Cl)o1,"inconclusive [inhibitor, single point]",–
CO[C@H]1C=CO[C@@]2(C)Oc3c(C)c(O)c4c(O)c(c5c(c4c3C2=O)=NC2(CCN(CC(C)C)CC2)N=5)NC(=O)/C(C)=C\C=C/[C@H](C)[C@H](O)[C@@H](C)[C@@H](O)[C@@H](C)[C@H](OC(C)=O)[C@@H]1C,"inconclusive [inhibitor, partial curve, poor fit]",–
O=C(CC12CC3CC(CC(C3)C1)C2)N/N=C/c1ccncc1,"inconclusive [inhibitor, partial curve, poor fit]",–
CN(CC(=O)Nc1cccc(F)c1)C(=O)CN1C(=O)NC2(CCCC2)C1=O,"inconclusive [inhibitor, single point]",–
COC1(C(F)(F)F)NC(=O)N(c2ccc(F)cc2)C1=O (configuration not stated),–,inactive: -5.9%
Cc1ccc(OCCSc2nc3ccc(NC(=O)COc4ccc(C)cc4)cc3s2)cc1,"inconclusive [inhibitor, partial curve, poor fit]",–
CCOC(=O)c1cnn(-c2cccc(Cl)c2)c1C1CCN(C(=O)OC(C)(C)C)CC1,"inconclusive [inhibitor, single point]",–
CC1(C)OC(c2ccccc2)=C/C(=C/C=Nc2ccccc2)O1,"inconclusive [inhibitor, single point]",–
CCCCN(C(=O)c1cccc(S(=O)(=O)N2CC(C)OC(C)C2)c1)c1c(N)n(CC(C)C)c(=O)[nH]c1=O (configuration not stated),–,inactive: -2.55%
COc1ccc(NC(=O)N2CCC(n3c(C)nc4cccnc43)CC2)cc1OC,–,inactive: 24.6%
CN(C)c1ccc(/C=C(/C#N)C(=O)Nc2nc3c(s2)CCN(Cc2ccccc2)C3)cc1,"inconclusive [inhibitor, full curve, poor fit]",–
CCNC(=S)Nc1ccc2c(c1)c(=O)n(C)n2-c1ccc(C(C)(C)C)cc1,"inconclusive [inhibitor, partial curve, poor fit]",–
CC1=NN(c2ccccc2)C(=O)C1N=Nc1ccc(N)cc1 (configuration not stated),active: 10.3 µM,–
COc1ccc(Cl)cc1NC(=O)N1CCC2(CC1)Oc1ccccc1C(=O)N2Cc1ccc(F)cc1,"inconclusive [inhibitor, single point]",–
COc1ccc(S(=O)(=O)N2CCCOC2CNC(=O)C(=O)NCc2ccccc2C)cc1 (configuration not stated),–,inactive: -27.6%
Cc1c(Br)cccc1NC(=O)C1(C)CCN1Cc1ccc(OC(C)C)cc1 (configuration not stated),"inconclusive [inhibitor, single point]",–
CSc1nc2sc3c(c2c(=O)n1-c1ccc(C)cc1)CCCC3,active: 8.2 µM,–
CC1CCN(C(=O)c2ccc(CSc3nc4ccncc4n3Cc3ccc(F)cc3)cc2)CC1,"inconclusive [inhibitor, single point]",–
CC(C)c1nc(N2CCOCC2)c(C#N)c2c1CCC2,"inconclusive [inhibitor, partial curve]",–
CCOc1ccc(-c2nnn(CC(=O)NCc3ccccc3)n2)cc1,"inconclusive [inhibitor, single point]",–

Compound,Potency,"activity change, negative = growth inhibition"
CC1(C)Cc2c(sc(/N=C/N3CCCC3)c2C#N)C(C)(C)N1,–,inconclusive: -29.9% [inhibitor]
Cc1nc(Sc2nnnn2C)c2c3c(sc2n1)CCC3,active: 1.64 µM,–
COc1ccc([N+](=O)[O-])cc1N(CC(=O)Nc1ccccc1C(=O)N1CCOCC1)S(C)(=O)=O,–,inactive: -1.39%
CN(Cc1cc(Cl)cc(Cl)c1)[C@H]1C[C@H]2c3[nH]c4ccccc4c3CCN2C(=O)[C@H]1CO,"inconclusive [inhibitor, single point]",–
O=C(CCc1ccc(S(=O)(=O)N2CCOCC2)cc1)Nc1ccccc1F,–,inactive: -28.8%
O=c1c(Cc2ccccc2)c(O)nc2n1CCS2,–,inactive: 0.246%
CN1CCN(S(=O)(=O)c2cccc(S(=O)(=O)c3ccc(Cl)cc3)c2)CC1,active: 16.4 µM,–
COC(=O)[C@@]12C[C@@H](CC(=O)NCc3ccccc3)C(=O)N(Cc3ccc4c(c3)OCO4)C1=CCC(C)(C)C2,active: 16.4 µM,–
Fc1ccc(NCc2nc3ccccc3n2CCOc2ccccc2Cl)cc1,"inconclusive [inhibitor, single point]",–
CC(C)(C)[C@H]1C=C(C(=O)N2CCN(Cc3ccccc3)CC2)O[C@@H](OCc2ccc(CO)cc2)C1,"inconclusive [inhibitor, single point]",–
CCOC(=O)N1CCC(N(CCCOC)C(=O)Nc2cccc(OC)c2)CC1,"inconclusive [inhibitor, single point]",–
COc1ccccc1N(CC(=O)Nc1ccccc1)S(=O)(=O)c1cccs1,"inconclusive [inhibitor, single point]",–
Cn1c(=O)c2c(nc(SCC(=O)N3CCCCCC3)n2C)n(C)c1=O,–,inactive: -5.41%
O=C1NCN(c2ccccc2)C12CCN(c1nnnn1-c1ccccc1)CC2,"inconclusive [inhibitor, single point]",–
CCN(CC)C(=O)C1=C(C)N(Cc2ccc(OC)cc2)C(=O)C(CC(=O)NCc2cccc3ccccc23)C1 (configuration not stated),active: 23.1 µM,–
CCCN1C(C)C(C(=O)OCC)=CN(Cc2ccc(Br)cc2)S1(=O)=O (configuration not stated),"inconclusive [inhibitor, single point]",–
COc1ccc(CC(=O)Nc2cc3oc4ccccc4c3cc2OC)cc1,"inconclusive [inhibitor, single point]",–
CCCn1cc(S(=O)(=O)c2ccc(OCC)cc2)c(=O)c2cc(C)ccc21,"inconclusive [inhibitor, single point]",–
Cc1cccc(N=C2NN=C(c3c(C)[nH]c4ccccc34)CS2)c1,"inconclusive [inhibitor, single point]",–
Cc1cc(O)c(C(C)C)cc1NC(=O)Cn1nc(C)c2ccccc2c1=O,"inconclusive [inhibitor, single point]",–
Cn1c(N)c(S(=O)(=O)N2CCN(c3ccccc3F)CC2)c(=O)n(C)c1=O,–,inactive: 2.87%
O=C(CC(=O)N/N=C/c1ccccc1O)NCc1cccnc1,"inconclusive [inhibitor, single point]",–
CC(O)(c1ccc(F)c(F)c1)c1nc(-c2ccncc2)cs1 (configuration not stated),active: 13 µM,–

Compound,Potency,"activity change, negative = growth inhibition"
CCOc1cc(/C=N/NC(=O)C(C)Sc2ccccn2)ccc1O (configuration not stated),"inconclusive [inhibitor, single point]",–
N#CC12C(=O)NC(=O)C1(C#N)C21CCCC1 (configuration not stated),–,inactive: -0.0375%
COc1ccc(C2CC(c3ccccc3)=NN2C(=O)COC(=O)CNC(=O)c2ccccc2)cc1 (configuration not stated),"inconclusive [inhibitor, single point]",–
Cc1c(-c2cccc(NC(=O)Cc3ccccc3)c2)nc2ncccn12,"inconclusive [inhibitor, single point]",–
Cn1c(=O)c2c(nc(OCc3cccnc3)n2Cc2ccccc2)n(C)c1=O,"inconclusive [inhibitor, single point]",–
COc1ccc(/C=N/n2cnnc2SCc2ccccc2)cc1,active: 20.6 µM,–
O=C(NCCOc1ccccc1F)C1CCC(=O)N(CCc2cccc(F)c2)C1 (configuration not stated),–,inactive: -24.2%
CCOC(=O)c1sc2nc(C)c([N+](=O)[O-])c(COC)c2c1N,–,inactive: -25.4%
COc1ccc(CNc2nc(-c3ccccc3)nn2C(=O)c2ccccc2OC)cc1,active: 18.4 µM,–
O=C(Nc1ccc(F)c(Cl)c1)c1cc(C2CCCCN2C(=O)c2ccc(Cl)cc2)on1 (configuration not stated),active: 20.6 µM,–
CCc1cc(=O)oc2c(C)c(OS(C)(=O)=O)ccc12,–,inactive: -26.1%
CN(C)S(=O)(=O)c1ccc(Cl)c(NC(=O)COC(=O)c2ccc3c(c2)NC(=O)CS3)c1,"inconclusive [inhibitor, single point]",–
COc1ccc(C2Nc3ccccc3C(=O)N2c2ccc(C)cc2)cc1Cn1nc(C)c([N+](=O)[O-])c1C (configuration not stated),"inconclusive [inhibitor, partial curve]",–
COc1ccc(CNC(=O)c2cc(-c3cc(C)ccc3O)n[nH]2)cc1,"inconclusive [inhibitor, single point]",–
COc1ccc(CN(C)CC(=O)NC(=O)NC2CCCCC2)cc1,"inconclusive [inhibitor, single point]",–
COc1cc(C(=O)OC(C)C(=O)Nc2ccc3c(c2)OCO3)ccc1OCc1c(C)noc1C (configuration not stated),–,inactive: -24.1%
CN(Cc1ccccc1)C(=O)c1c[nH]c2ccc(S(=O)(=O)Nc3ccccc3F)cc2c1=O,"inconclusive [inhibitor, single point]",–
Cc1ccc(Nc2nnc(C)c3ccccc23)c(C)c1,"inconclusive [inhibitor, full curve, poor fit]",–
CN(C)C1=NCCN1CCc1ccccc1,"inconclusive [inhibitor, single point]",–
Cn1cc(-c2coc3c(C(=O)Nc4ccccc4)cccc23)cn1,"inconclusive [inhibitor, single point]",–
CCOC(=O)c1cc2c(=O)n3ccccc3nc2n(CC2CCCO2)c1=NC(=O)c1ccc(OCC)cc1 (configuration not stated),active: 5.8 µM,–
